Experimental data: the supplement of paper PMC4166925
± gives the standard deviation of the averaged measurements. In all, about 33,000 sequences were measured (“E-score (dimensionless, -0.5 to 0.5)”: median about -0.046, highest 2% from about 0.36 on). Some of the results follow.

tested on: T1, SpTbr T-box DNA-binding domain (GST fusion); experiment: PBM E-score of 8-mer (E-score (dimensionless, -0.5 to 0.5)); Tbr is Tbrain of the sea star Patiria miniata (Pm) or the sea urchin Strongylocentrotus purpuratus (Sp); higher = stronger binding preference; most listed sequences are background and not binding sites; conditions: the construct has about 5 more residues each side
T1 sequence: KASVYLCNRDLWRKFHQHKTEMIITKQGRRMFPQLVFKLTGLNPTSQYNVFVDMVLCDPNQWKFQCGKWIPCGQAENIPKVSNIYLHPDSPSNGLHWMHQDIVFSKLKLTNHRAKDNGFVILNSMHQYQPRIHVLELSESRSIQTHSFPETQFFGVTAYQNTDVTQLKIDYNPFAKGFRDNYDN
How it was run: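 Universal Agilent oligonucleotide arrays, made double-stranded by primer extension, were incubated with 200 nM GST-fused Tbr T-box DNA-binding domain in PBS (pH 7.5). The protein was expressed in BL21 E. coli at 20 °C and purified by glutathione affinity chromatography. After scanning and quantification, the Universal PBM Analysis Suite assigned an enrichment E-score to each ungapped 8-mer, averaged over duplicate arrays.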

Sequence | PBM E-score of 8-mer
AATCATTG | -0.00133 ± 0.019
CTTTAGAC | -0.109 ± 0.084
GTCTATTA | -0.237 ± 0.0052
CGTGGTTC | -0.173 ± 0.029
CACCCGTG | 0.2 ± 0.006
AATTCCCC | -0.213 ± 0.067
TCCTGTCA | 0.185 ± 0.023
CTAGGAAG | -0.184 ± 0.035
ACTGCCCC | -0.127 ± 0.098
AAGTTCGC | 0.264 ± 0.03
TCAGTAGA | -0.0208 ± 0.049
AAGTACAT | -0.193 ± 0.047
GGAATGAA | -0.267 ± 0.059
CAGAATAA | 0.0484 ± 0.089
AGGCCTAG | -0.17 ± 0.021
AGTTCAAA | -0.208 ± 0.046
AACCCTAT | -0.21 ± 0.046
GCATTATA | -0.166 ± 0.03
ATAAATAG | -0.167 ± 0.011
CTGCAGAC | -0.109 ± 0.029
GCTCAATA | -0.021 ± 0.057
CCAGATAC | 0.00734 ± 0.012

Sequence | PBM E-score of 8-mer
GGTGCGAC | 0.452 ± 0.0081
CAATCTAC | -0.0895 ± 0.0061
GCTCGGCA | -0.0879 ± 0.036
CTGAGTAC | -0.0662 ± 0.0056
CCGGCATA | -0.326 ± 0.048
CGTCTAAA | -0.0354 ± 0.013
AACAATGC | -0.018 ± 0.0069
TCTCCACA | 0.102 ± 0.021
CACTGCGG | -0.0547 ± 0.0084
CAGAGGCC | -0.112 ± 0.11
GTATGGAC | -0.2818 ± 0.0027
GCGCACGA | 0.277 ± 0.047
GGATATCA | 0.049 ± 0.0044
AAGACCCT | -0.233 ± 0.0045
AAGGACCC | -0.191 ± 0.026
GAAAATCC | -0.171 ± 0.075
ACGAGATA | 0.003 ± 0.08
CCTATTCA | -0.0306 ± 0.042
AACTCCCC | -0.0113 ± 0.035
TCTACTCA | -0.0396 ± 0.04
CCGTAATC | -0.196 ± 0.031
CACTTGGC | 0.212 ± 0.0033

Sequence | PBM E-score of 8-mer
CCGTCGTA | -0.0573 ± 0.07
CCTTAGAG | -0.0243 ± 0.041
AGGCGATG | 0.197 ± 0.062
CGAACTCG | 0.137 ± 0.072
CCTCAGCA | 0.142 ± 0.0032
GAGAGGAC | -0.0122 ± 0.035
TTATAAAA | -0.224 ± 0.033
GAACTGTC | 0.186 ± 0.032
ACTCGCAG | 0.0332 ± 0.026
AGGCCTAA | -0.085 ± 0.025
AACTCCCA | -0.0267 ± 0.12
ACACCTTG | 0.4831 ± 0.0013
CCCCTGTC | 0.00408 ± 0.013
CCGTTTTC | -0.0965 ± 0.055
ATAATATG | 0.0799 ± 0.022
ACCTTGTA | 0.0453 ± 0.022
CACGAAAA | -0.133 ± 0.05
GATCCCTA | -0.0535 ± 0.023
GTCGGTGA | 0.0324 ± 0.0083
CAAAACTA | -0.0238 ± 0.00022
AAGCTGCC | 0.0478 ± 0.00081
AATCCTCA | -0.138 ± 0.024

Sequence | PBM E-score of 8-mer
CGCTATCA | 0.229 ± 0.011
GGATCGAA | -0.139 ± 0.015
CAACCGTA | -0.21 ± 0.02
AAATAGCG | 0.169 ± 0.013
GACGCACC | 0.129 ± 0.022
CCGAGAAC | 0.28 ± 0.016
ACGCTGCA | -0.025 ± 0.089
AGGATCCA | -0.0697 ± 0.0047
AAGCTCAT | -0.137 ± 0.0061
CCTCACCC | 0.207 ± 0.054
GCTCTCAC | 0.312 ± 0.028
GCAAATCA | 0.0985 ± 0.064
ATATCGTC | 0.134 ± 0.027
AACCTCTT | -0.131 ± 0.01
AACGCTAC | 0.0932 ± 0.059
AAGTCCGC | 0.133 ± 0.018
CTCCGCTA | 0.0268 ± 0.034
GCTACCGA | 0.0542 ± 0.037
CGCCTGCC | 0.249 ± 0.035
AGGTCCGG | -0.307 ± 0.02
